# Laboratory results from PMC4336329 (PLoS ONE, 2015).
# The whole screen tested about 310,000 compounds, of which about 14,000 (4.5%) showed an effect of 50% or more. Effects have a minus sign here. The list shows a part of the results.
# Molecular target: human ether-à-go-go-related gene (hERG) potassium channel (human, UniProt Q12809)
# Experiment: primary screen, population patch clamp on CHO cells stably expressing hERG
# 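Also: peak tail current of the secondary pulse compared with the same well before compound.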
# human ether-à-go-go-related gene (hERG) potassium channel, sequence (Q12809 whole entry, looked up): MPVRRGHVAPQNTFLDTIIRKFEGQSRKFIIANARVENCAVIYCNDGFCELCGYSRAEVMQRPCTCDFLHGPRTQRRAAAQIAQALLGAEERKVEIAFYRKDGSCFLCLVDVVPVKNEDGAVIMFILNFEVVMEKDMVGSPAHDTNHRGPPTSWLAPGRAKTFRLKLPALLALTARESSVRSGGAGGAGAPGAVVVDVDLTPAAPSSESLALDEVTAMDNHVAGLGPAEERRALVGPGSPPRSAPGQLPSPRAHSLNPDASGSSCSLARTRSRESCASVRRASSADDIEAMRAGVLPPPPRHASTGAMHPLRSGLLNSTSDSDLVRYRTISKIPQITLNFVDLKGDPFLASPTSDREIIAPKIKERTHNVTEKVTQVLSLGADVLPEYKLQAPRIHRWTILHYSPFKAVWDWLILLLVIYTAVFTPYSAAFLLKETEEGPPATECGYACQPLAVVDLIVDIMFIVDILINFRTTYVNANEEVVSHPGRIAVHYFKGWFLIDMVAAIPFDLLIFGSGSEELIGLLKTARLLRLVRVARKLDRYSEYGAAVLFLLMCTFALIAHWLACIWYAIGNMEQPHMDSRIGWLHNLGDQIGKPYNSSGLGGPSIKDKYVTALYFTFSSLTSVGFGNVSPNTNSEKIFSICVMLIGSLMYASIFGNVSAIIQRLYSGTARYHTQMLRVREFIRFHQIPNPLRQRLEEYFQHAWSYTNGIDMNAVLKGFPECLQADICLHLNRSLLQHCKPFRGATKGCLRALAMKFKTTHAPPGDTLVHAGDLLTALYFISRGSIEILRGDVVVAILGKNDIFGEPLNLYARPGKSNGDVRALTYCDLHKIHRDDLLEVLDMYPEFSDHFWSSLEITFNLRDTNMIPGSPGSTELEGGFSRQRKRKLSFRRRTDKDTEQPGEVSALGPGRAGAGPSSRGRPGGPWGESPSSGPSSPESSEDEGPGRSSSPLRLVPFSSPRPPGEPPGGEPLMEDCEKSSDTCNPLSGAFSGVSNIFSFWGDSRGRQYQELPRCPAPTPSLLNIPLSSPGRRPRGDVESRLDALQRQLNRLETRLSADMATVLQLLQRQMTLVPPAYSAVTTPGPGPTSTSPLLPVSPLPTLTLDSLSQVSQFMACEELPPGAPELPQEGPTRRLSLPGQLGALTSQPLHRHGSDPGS
row,Structure (SMILES),"hERG current change (%, negative = inhibition) at 10uM"
1,O=C(NCc1ccc(Cl)s1)C1CCC(=O)N(CCc2ccccn2)C1 (stereo not drawn),-10.1%
2,O=C(Nc1ccc(F)c(Cl)c1)c1ccc2c(=O)n3c(nc2c1)CCCCC3,-36.6%
3,O=C(O)CSc1c2ccccc2cc2ccccc12,9.43%
4,COc1cc(C(=O)N=c2sccn2C)c([N+](=O)[O-])cc1OC,16.3%
5,CC(=O)O/N=C/c1c(N2CCOCC2)n(C)c2ccccc12,-14.4%
6,O=C(CS(=O)CC(=O)Nc1ccccc1-c1ccccc1)Nc1ccc(F)cc1 (stereo not drawn),-2.16%
7,Cc1ccc(NC2CCCN(C(=O)c3cccnc3)C2)cc1C (stereo not drawn),14.5%
8,COC(=O)CC1COc2ccccc2N1C(=O)c1cccc(Cl)c1 (stereo not drawn),-21.8%
9,CCN1C(=O)c2ccccc2S(=O)c2ccc(C(=O)N3CCCCCC3)cc21 (stereo not drawn),1.79%
10,CCC(C)(C)NC(=O)c1cc(S(=O)(=O)N2CCc3ccccc32)cn1C,-2.52%
11,CCOc1cc(/C=C2\COc3ccccc3C2=O)cc(Br)c1OCC(=O)N(C)C,-1.3%
12,CCOc1ccc(NC(=O)CCN2CCCCC2)cc1,-10.3%
13,CCCCn1c(=S)[nH]c2ccccc2c1=O,13.7%
14,Cc1cccc(C)c1NC(=O)CCCSc1nc2ccccc2s1,4.51%
15,CCOC(=O)c1cnn(-c2nc(-c3ccccc3)nc3c2COC(C)(C)C3)c1N,10.9%
16,O=C(NNc1nc(-c2ccc(Br)cc2)cs1)c1ccco1,-3.22%
17,CC(CCC(=O)O)(c1ccc(O)cc1)c1ccc(O)cc1,10.9%
18,CCOC(=O)c1sc(NC(=O)/C=C/c2c(F)cccc2Cl)nc1C,23%
19,CCOc1ccc(CCNC(=O)Nc2ccccc2)cc1OCC,17.5%
20,CCC(C)NC(=S)N1CCN(C)CC1.O=C(O)C(=O)O (stereo not drawn),15.4%
21,O=C(NC1CCCCC1)C1CCCN1S(=O)(=O)c1cccc2nsnc12 (stereo not drawn),-14%
22,C=CCN1CCC2(C)c3cc(O)ccc3CC1C2C.Cl (stereo not drawn),-14.8%
23,O=C(COc1cc2oc(=O)c3c(c2cc1Cl)CCC3)Nc1ccccn1,32.9%

row,Structure (SMILES),"hERG current change (%, negative = inhibition) at 10uM"
1,Cc1ccc(S(=O)(=O)NCC(=O)OCC(=O)N2CCc3ccccc32)cc1,3.63%
2,Nc1ncnc2nc(SCCc3ccccc3)[nH]c12,7.66%
3,Cc1cc(NC(=O)CSc2ncnc3c2cnn3-c2ccccc2)no1,-10.8%
4,CCn1c(SCC(=O)n2c(C)c(C)c3ccccc32)nnc1-c1ccco1,7.75%
5,COc1ccc(CCN2CC(C(=O)N(C)Cc3cccnc3)CC2=O)cc1OC (stereo not drawn),8.53%
6,Fc1ccccc1OCCCCSc1ncccn1,-27.6%
7,O=C(O)c1ccc(Oc2cc(Oc3ccc(C(=O)O)cc3)cc([N+](=O)[O-])c2)cc1,11.6%
8,CCOC(=O)/C=c1\s/c(=C\c2c(OC)ccc3ccccc23)c(=O)n1CC(=O)NCC1CCCO1 (stereo not drawn),2.13%
9,Cc1cc(C)c(S(=O)(=O)NCc2ccccn2)cc1C,12.8%
10,CCOC(=O)C(NC(=O)c1ccccc1Cl)(Nc1ccc(C(F)(F)F)cc1)C(F)(F)F (stereo not drawn),-7.95%
11,COc1ccc(C(=O)Nc2ccc(S(=O)(=O)N(C)c3ccccc3)cc2)cc1,3.6%
12,NC(=O)N/N=C/c1cc(Br)ccc1OCC(=O)NCc1ccccc1,-6.43%
13,Cc1cc(/C=N/n2cnnc2)c(C)n1-c1ccc(Cl)cc1Cl,-7.41%
14,Cc1ccc2c(C)c(C(=O)NCCN3CCCC(O)C3)oc2c1C (stereo not drawn),-2.77%
15,COc1cc(C(=O)NCCc2ccc(S(=O)(=O)N3CCCC3)cc2)cc(OC)c1OC,-29.5%
16,O=C(COc1ccc(/C=N/NC(=O)c2ccc(O)cc2)cc1)Nc1cccc([N+](=O)[O-])c1,43.4%
17,CCOc1ccc(NC(=O)Nc2ccccc2SC)cc1,16.3%
18,CCOC(=O)n1c(=O)oc2cc(S(=O)(=O)N3CCCCC3)ccc21,-13.4%
19,Cc1cccc(OCCSc2nc3ncnc(N)c3[nH]2)c1,13.8%
20,Cc1ccc(C(C(=O)NCc2ccco2)N(CC2CCCO2)C(=O)Cn2nnc3ccccc32)cc1 (stereo not drawn),5.62%
21,COc1ccc2nc(NC(=O)C3=NN(c4ccccc4)C(=O)CC3)sc2c1,4.41%
22,O=C(Cn1ccc([N+](=O)[O-])n1)Nc1ccccn1,36.7%
